# Several values for one entry are separate records, joined by “and”; a condition that tells them apart may be missing. Equal values may be shown once. Where a name gives a salt, the structure may show the parent alone. Among all 5,800 compounds or so, about 620 (11%) showed activity.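 The calls were made as follows: active = score above a cut-off or among the top three wells of a plate; in these data no inactive exceeds 0.85.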 The entries are a selection whose mix differs from that of the whole data set.
# Tested on: primary human hepatic stellate cells (donor 1)
# Experiment: scaled lipid accumulation score (0 = DMSO-like, 1 = nortriptyline-like); higher = stronger HSC inactivation (lipid re-accumulation), active = hit call of the paper
# Details: 48 h
# [1] = library stock concentration: 1 mM
# [2] = library stock concentration: 10 mM
# [3] = library stock concentration: 3.33 mM
smiles,measurement,setting,value
C[C@]1(OC(=O)/C=C/c2ccccc2)C[C@@H](O)[C@]2(O)C=CO[C@@H](O[C@@H]3O[C@H](CO)[C@@H](O)[C@H](O)[C@H]3O)[C@@H]21 [Harpagoside],scaled lipid accumulation score,,inactive: ≤ 0
Cc1c(C)c2c(c(C)c1O)CCC(C)(COc1ccc(CC3SC(=O)NC3=O)cc1)O2 (configuration not stated) [Troglitazone],scaled lipid accumulation score,[1],inactive: ≤ 0
same,scaled lipid accumulation score,library stock concentration: 4.5 mM,inactive: 0.031 and inactive: ≤ 0
C[N+]1(C)[C@@H]2CC[C@H]1C[C@@H](OC(=O)C(O)c1ccccc1)C2 (some centres not stated) [Homatropine methylbromide],scaled lipid accumulation score,library stock concentration: 5.4 mM,inactive: ≤ -0.001
same,scaled lipid accumulation score,[2],inactive: 0.054
C[N+]1(C)[C@@H]2CC[C@H]1C[C@@H](OC(=O)C(O)c1ccccc1)C2 (some centres not stated) [Homatropine Methylbromide],scaled lipid accumulation score,[3],inactive: ≤ 0
same,scaled lipid accumulation score,[2],inactive: ≤ -0.001
CCCCCCCCCC(=O)CC(=O)N[C@H]1CCOC1=O [N-3-oxo-dodecanoyl-L-Homoserine lactone],scaled lipid accumulation score,[1],inactive: 0.017
COC(c1ccccc1)(c1ccccc1)[C@H](Oc1nc(C)cc(C)n1)C(=O)O [Ambrisentan],scaled lipid accumulation score,[3],inactive: 0.04
same,scaled lipid accumulation score,[2],inactive: ≤ 0
C=Cc1c(C)c2cc3[nH]c(cc4nc(cc5nc(cc1[nH]2)C(C)=C5CCC(=O)O)C(CCC(=O)O)=C4C)c(C)c3C=C [Protoporphyrin IX disodium],scaled lipid accumulation score,[2],inactive: 0.335
COC(=O)C1=C(C)NC(C)=C(C(=O)OCCN2CCN(C(c3ccccc3)c3ccccc3)CC2)C1c1cccc([N+](=O)[O-])c1 (configuration not stated),scaled lipid accumulation score,[2],inactive: 0.339
COC(=O)C1=C(C)NC(C)=C(C(=O)OCCN2CCN(C(c3ccccc3)c3ccccc3)CC2)C1c1cccc([N+](=O)[O-])c1 (configuration not stated) [Manidipine 2HCl],scaled lipid accumulation score,[3],inactive: ≤ 0
same,scaled lipid accumulation score,[2],inactive: ≤ 0
COC(=O)C1=C(C)NC(C)=C(C(=O)OCCN2CCN(C(c3ccccc3)c3ccccc3)CC2)C1c1cccc([N+](=O)[O-])c1 (configuration not stated) [Manidipine],scaled lipid accumulation score,[3],inactive: 0.048
same,scaled lipid accumulation score,[2],inactive: 0.084
CC(C)N(C[C@H]1O[C@@H](n2cnc3c(N)ncnc32)[C@H](O)[C@@H]1O)[C@H]1C[C@@H](CCc2nc3cc(C(C)(C)C)ccc3[nH]2)C1,scaled lipid accumulation score,[3],inactive: ≤ 0
same,scaled lipid accumulation score,[2],inactive: 0.467
Cc1cc(Nc2nc(-c3ccccc3)nc3ccccc23)n[nH]1 [GSK-3 Inhibitor XIII],scaled lipid accumulation score,[3],inactive: ≤ 0
CN(C)C/C=C(/c1ccc(Br)cc1)c1cccnc1.Cl.Cl [Zimelidine dihydrochloride],scaled lipid accumulation score,[2],active: 0.893
O=C(/C=C/c1ccc2ccccc2n1)c1ccncc1,scaled lipid accumulation score,[3],inactive: 0.681
same,scaled lipid accumulation score,[2],inactive: 0.429
CCCCCCCC/C=C\CCCCCCCCCCCCCC(=O)NCCS(=O)(=O)O [N-Nervonoyl Taurine],scaled lipid accumulation score,[1],inactive: 0.028
Cc1cc(C(N)=O)ccc1-n1c(CCC(=O)O)ccc1-c1ccc(-n2ccnc2)cc1,scaled lipid accumulation score,[3],inactive: ≤ -0.009
same,scaled lipid accumulation score,[2],inactive: ≤ 0
Cl.Cl.c1ccc2c(NCCCCCCCNc3c4c(nc5ccccc35)CCCC4)c3c(nc2c1)CCCC3 [bis(7)-Tacrine],scaled lipid accumulation score,[1],active: 1.11
COC(=O)[C@H]1[C@H]2C[C@H]3c4[nH]c5ccccc5c4CCN3C[C@@H]2CC[C@@H]1O [Corynanthine hydrochloride],scaled lipid accumulation score,,inactive: ≤ 0
COc1ccc(/C=C/c2nc(NCCCN(C)C)c3ccccc3n2)cc1,scaled lipid accumulation score,[2],inactive: 0.387
C[C@H]1COc2c(C3(N)CC3)c(F)cc3c(=O)c(C(=O)O)cn1c23,scaled lipid accumulation score,[2],inactive: 0.025 and inactive: ≤ 0
C[C@H]1COc2c(C3(N)CC3)c(F)cc3c(=O)c(C(=O)O)cn1c23 [Pazufloxacin],scaled lipid accumulation score,library stock concentration: 6.3 mM,inactive: ≤ 0
CC(C(=O)O)c1ccc2c(c1)Cc1cccnc1O2 (configuration not stated) [Pranoprofen],scaled lipid accumulation score,[3],inactive: ≤ 0
same,scaled lipid accumulation score,library stock concentration: 7.8 mM,inactive: ≤ 0
same,scaled lipid accumulation score,[2],inactive: ≤ 0
Cc1cc(C(C)(C)C)c(O)c(C)c1CC1=NCCN1 [Oxymetazoline HCl],scaled lipid accumulation score,[3],inactive: ≤ 0
same,scaled lipid accumulation score,library stock concentration: 7.7 mM,inactive: 0.147
same,scaled lipid accumulation score,[2],inactive: 0.036
Cc1cc(C(C)(C)C)c(O)c(C)c1CC1=NCCN1 [Oxymetazoline hydrochloride],scaled lipid accumulation score,,inactive: 0.182
same,scaled lipid accumulation score,library stock concentration: 6.7 mM,inactive: 0.153
same,scaled lipid accumulation score,[2],inactive: 0.218 and inactive: 0.402 and inactive: 0.173
NC(Cc1ccc(Cl)cc1)C(=O)O (configuration not stated) [(?)-p-Chlorophenylalanine],scaled lipid accumulation score,[2],inactive: ≤ 0
CN(C)CCCN1c2ccccc2Sc2ccccc21 [Promazine hydrochloride],scaled lipid accumulation score,,inactive: 0.365
same,scaled lipid accumulation score,library stock concentration: 6.2 mM,inactive: 0.834
same,scaled lipid accumulation score,[2],inactive: 0.324
NS(=O)(=O)c1cc(C(=O)O)cc(N2CCCC2)c1Oc1ccccc1 [Piretanide],scaled lipid accumulation score,,inactive: 0.015
O=C[C@H](O)[C@@H](O)[C@H](O)CO [Xylose],scaled lipid accumulation score,[3],inactive: ≤ 0
same,scaled lipid accumulation score,[2],inactive: 0.028
CC(=O)O[C@]1(C(C)=O)CC[C@H]2[C@@H]3C[C@H](C)C4=CC(=O)C=C[C@]4(C)[C@@]3(F)[C@@H](O)C[C@@]21C [Fluorometholone Acetate],scaled lipid accumulation score,[3],inactive: ≤ 0
same,scaled lipid accumulation score,[2],inactive: ≤ -0.001
CCCCCCCCCCCCCCCCOC[C@H](COP(=O)([O-])OCC[N+](C)(C)C)SC(C)=O [2-thio-PAF],scaled lipid accumulation score,[1],inactive: ≤ 0
COc1ccc([C@@H]2CC(=O)c3c(O)cc(O[C@@H]4O[C@H](CO[C@@H]5O[C@@H](C)[C@H](O)[C@@H](O)[C@H]5O)[C@@H](O)[C@H](O)[C@H]4O)cc3O2)cc1O [Hesperidin],scaled lipid accumulation score,,inactive: ≤ 0
same,scaled lipid accumulation score,[3],inactive: 0.012
same,scaled lipid accumulation score,[2],inactive: ≤ 0
O=c1cc(N2CCOCC2)oc2c(-c3cccc4c3sc3ccccc34)cccc12,scaled lipid accumulation score,library stock concentration: 80 uM,inactive: ≤ 0
same,scaled lipid accumulation score,library stock concentration: 400 uM,inactive: ≤ 0
same,scaled lipid accumulation score,library stock concentration: 2 mM,inactive: ≤ 0
same,scaled lipid accumulation score,[3],inactive: ≤ 0
same,scaled lipid accumulation score,[2],inactive: ≤ 0
CC(C)(C(=O)O)c1ccc(C(O)CCCN2CCC(C(O)(c3ccccc3)c3ccccc3)CC2)cc1 (configuration not stated) [Fexofenadine hydrochloride],scaled lipid accumulation score,[2],inactive: ≤ -0.07 and inactive: 0.008
CC(C)(C(=O)O)c1ccc(C(O)CCCN2CCC(C(O)(c3ccccc3)c3ccccc3)CC2)cc1 (configuration not stated),scaled lipid accumulation score,[2],inactive: ≤ 0
CC(C)(C(=O)O)c1ccc(C(O)CCCN2CCC(C(O)(c3ccccc3)c3ccccc3)CC2)cc1 (configuration not stated) [Fexofenadine HCl],scaled lipid accumulation score,,inactive: ≤ 0
same,scaled lipid accumulation score,[3],inactive: ≤ 0
same,scaled lipid accumulation score,[2],inactive: 0.057

# Reference: the supplement of paper PMC9135407
